The test system of assay [1] is Influenza A virus A/Kadoma/3/2006 (H1N1). Briefly: Experiment 1: infected ferrets, treatment starting at Day 1 p.i. (virus titer in nasal washes, body temperature). The conditions noted are these: for body temperature changes from baseline over time (in words): from 8 hours up to Day 3 p.i., BXM 10 and 30 mg/kg twice daily 1 day, OSP 5 mg/kg twice daily 2 days, from Day 1 p.i.

Assay [2] has the same test system. Briefly: Experiment 2: infected ferrets, treatment starting at Day 2 p.i. (virus titer in nasal washes, body temperature). The conditions noted are these: treatment from Day 2 p.i.; BXM 10 mg/kg twice daily 1 day, OSP 5 mg/kg twice daily 2 days.

A value given as a limit tells only on which side of the number the result lay.

In the case of `COC(=O)OCOc1c2n(ccc1=O)N([C@@H]1c3ccccc3SCc3c1ccc(F)c3F)[C@@H]1COCCN1C2=O` [BXM, Baloxavir marboxil], in assay [1] (Day 2 p.i., BXM 10 mg/kg twice daily for 1 day from Day 1 p.i., undetectable level), the “virus titer in nasal washes” value was less than 0.5 log10 TCID50/mL. The “body temperature changes from baseline over time (in words)” value in assay [1] was “significantly greater with BXM at doses of 10 and 30 mg/kg than vehicle and OSP 5 mg/kg”. In assay [2], the “virus titer in nasal washes on Day 3 p.i. (in words)” value is reported as “statistically significant reduction in virus titer by Day 3 compared with vehicle or OSP”.

Turning to `CCOC(=O)C1=C[C@@H](OC(CC)CC)[C@H](NC(C)=O)[C@@H](N)C1` [OSP, oseltamivir phosphate], the “body temperature changes from baseline over time (in words)” value in assay [1] is recorded as “no effect on body temperature was observed”. The “virus titer in nasal washes on Day 3 p.i. (in words)” value in assay [2] is on record as “reduced virus titers on Day 3 p.i., but not significantly compared with vehicle”.

Source of the values: article PMC7578299, “The antiviral effects of baloxavir marboxil against influenza A virus infection in ferrets” (Influenza and Other Respiratory Viruses, 2020).
